# Measured values published in PubChem BioAssay AID504332 (National Center for Advancing Translational Sciences (NCATS), 2011).
# Screen size: about 350,000 compounds; about 31,000 (8.9%) were called active. The inconclusive results got no clear call from the source; some entries with a clear call stand among them for comparison. The call rests on the fitted dose curve; in most records, active means well fitted inhibition curve with a large enough effect; inconclusive means small, poorly fitted or top-dose-only effect; inactive means no such curve, though single readings can be large or run the other way. Where the call is inconclusive, the potency comes from a doubtful curve fit.
# Target: Histone-lysine N-methyltransferase EHMT2 (Homo sapiens) (UniProt Q96KQ7)
# Sequence of UniProt Q96KQ7 (Q96KQ7 whole entry, looked up): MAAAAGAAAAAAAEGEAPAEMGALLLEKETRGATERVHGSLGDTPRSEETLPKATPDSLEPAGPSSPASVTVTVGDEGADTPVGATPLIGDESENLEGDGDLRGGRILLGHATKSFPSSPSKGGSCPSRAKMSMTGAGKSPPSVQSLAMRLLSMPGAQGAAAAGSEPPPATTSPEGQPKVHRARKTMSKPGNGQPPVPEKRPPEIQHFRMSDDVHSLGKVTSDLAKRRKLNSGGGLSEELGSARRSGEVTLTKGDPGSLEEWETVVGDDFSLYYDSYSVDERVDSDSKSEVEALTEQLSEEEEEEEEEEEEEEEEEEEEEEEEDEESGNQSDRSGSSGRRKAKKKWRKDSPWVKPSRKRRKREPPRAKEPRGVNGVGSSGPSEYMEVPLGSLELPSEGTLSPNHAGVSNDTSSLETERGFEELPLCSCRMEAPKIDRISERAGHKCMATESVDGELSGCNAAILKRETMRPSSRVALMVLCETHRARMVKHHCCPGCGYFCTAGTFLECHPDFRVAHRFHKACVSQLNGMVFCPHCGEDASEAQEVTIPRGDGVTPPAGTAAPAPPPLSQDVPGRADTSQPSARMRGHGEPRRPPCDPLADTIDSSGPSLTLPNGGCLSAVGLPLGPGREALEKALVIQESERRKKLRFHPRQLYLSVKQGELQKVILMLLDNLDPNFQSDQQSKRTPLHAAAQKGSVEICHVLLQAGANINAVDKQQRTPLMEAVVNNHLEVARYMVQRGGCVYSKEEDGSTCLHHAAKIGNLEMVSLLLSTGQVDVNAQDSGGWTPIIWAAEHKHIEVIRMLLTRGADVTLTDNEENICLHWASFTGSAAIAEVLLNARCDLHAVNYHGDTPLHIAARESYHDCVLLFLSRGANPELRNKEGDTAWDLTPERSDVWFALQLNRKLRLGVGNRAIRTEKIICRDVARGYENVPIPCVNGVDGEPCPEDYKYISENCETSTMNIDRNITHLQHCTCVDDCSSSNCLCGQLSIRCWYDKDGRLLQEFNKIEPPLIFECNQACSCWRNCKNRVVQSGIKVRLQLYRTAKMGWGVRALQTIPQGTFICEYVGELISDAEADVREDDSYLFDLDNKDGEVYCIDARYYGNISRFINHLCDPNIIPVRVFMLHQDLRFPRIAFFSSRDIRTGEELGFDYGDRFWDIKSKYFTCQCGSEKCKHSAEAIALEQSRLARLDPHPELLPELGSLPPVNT
# Test: qHTS Assay for Inhibitors of Histone Lysine Methyltransferase G9a; further: nearly all actives have a fitted effect of over 75% in size
# Conditions: G9a H3K9 monomethylation, AlphaScreen, 2 h; activity, negative = inhibition: at 59 µM (top of the series) unless noted
# Method in brief: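 AlphaScreen read-out: biotin-H3K9 peptide (500 nM) methylation by 20 nM enzyme with 20 uM SAM, 2 h at room temperature after 15 min compound preincubation; anti-monomethyl H3K9 antibody plus donor/acceptor beads, 10 min dark.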
# On the % scale 0 is the no-effect control and ±100 the full control effect; potency means the concentration at half of the fitted maximal effect; tags describe the fitted curve by direction and shape.
Structure (SMILES),Potency,"activity, negative = inhibition"
COc1ccc([N+](=O)[O-])c(S(=O)(=O)c2ccc(Cl)cc2)n1,active: 17.8 µM,
C[C@]12CC[C@@H]3c4ccc(O)cc4C(=O)C[C@H]3[C@@H]1CC[C@@H]2O,inactive,
CCC1CN(CC(=O)NCc2cccc(Br)c2)c2ccccc2S1 (stereo not drawn),"inconclusive: 17.8 µM [inhibitor, partial curve, poor fit]",
O=C(Cc1ccccc1)NO,,inactive: -23.8% [at 2.33 µM]
Cc1ccc(S(=O)(=O)c2cn(CC(=O)Nc3ccc4c(c3)OCO4)c3ccc(C)cc3c2=O)cc1,"inconclusive: 25.1 µM [inhibitor, partial curve, poor fit]",
Cc1cc(OCC(=O)OCC(=O)NC2CCCCC2C)ccc1Cl (stereo not drawn),,inactive: 18.4% [at 12.7 µM]
COc1ccc(-c2ccc(CCC(=O)O)n2-c2ccccc2C(F)(F)F)cc1,"inconclusive: 14.1 µM [inhibitor, partial curve, poor fit]",
O=C(CSc1ncnc2c1nnn2Cc1ccc(F)cc1)NC1CCCC1,"inconclusive: 17.8 µM [inhibitor, full curve]",
CC(C)C(=O)Nc1ccc(NC(=O)c2cccs2)cn1,"inconclusive: 4.47 µM [inhibitor, partial curve, poor fit]",
COc1ccccc1NC(=O)C1=C(C)NC2=C(C(=O)CCC2)C1c1ccc(C)o1 (stereo not drawn),active: 50.1 µM,
COc1cc(CN2CCC(C(=O)N3CCC(C)CC3)CC2)cc(Br)c1O,active: 10 µM,
COc1ccc(Cl)cc1NC(=O)NC(C)C,"inconclusive: 31.6 µM [inhibitor, partial curve, poor fit]",
COc1ccc(NS(=O)(=O)c2ccc(N3CCCC3)c(N)c2)cc1,active: 14.1 µM,
O=C1CCc2cc(S(=O)(=O)NC3CCCCC3)cc3c2N1CC3,active: 50.1 µM,
CN1CC[C@]2(CCN3CCc4c(oc5ccccc45)[C@@H]3C2)N(C)C1=O,inactive,
CCCOc1ccc(-c2nc(N3CCN(C)CC3)c3ccccc3n2)cc1,"inconclusive: 39.8 µM [inhibitor, partial curve]",
Cc1ccc(C)c(S(=O)(=O)N/N=C/c2cccnc2)c1,"inconclusive: 2 µM [inhibitor, full curve, poor fit]",
O=C(NC1CCCCCC1)C(=S)N1CCOCC1,"inconclusive: 2.24 µM [inhibitor, partial curve, poor fit]",
CCOC(=O)C1CCCN(c2cc(=O)n(-c3ccccc3Cl)c(=O)[nH]2)C1 (stereo not drawn),"inconclusive: 44.7 µM [inhibitor, partial curve, poor fit]",
COc1ccc(NC(=O)COc2ccccc2Cc2ccccc2)cc1S(=O)(=O)N1CCOCC1,"inconclusive: 79.4 µM [inhibitor, partial curve, poor fit]",
COc1ccc(NC(=O)COC(=O)C2CCCCC2)c([N+](=O)[O-])c1,active: 44.7 µM,
COC(=O)Cc1c(C)nc2nc(NCc3ccc(Br)cc3)[nH]n2c1=O,"inconclusive: 17.8 µM [inhibitor, partial curve, poor fit]",
CCCn1c(N)c(C(=O)CN(C)CC(=O)Nc2c(C)cc(C)cc2C)c(=O)[nH]c1=O,inactive,

Structure (SMILES),Potency,"activity, negative = inhibition"
C1CCN(C2CCN(c3nc4nonc4nc3N3CCSCC3)CC2)C1,"inconclusive: 25.1 µM [inhibitor, partial curve, poor fit]",
CCOC(=O)c1cc(-c2ccccc2)n(CC(=O)N2CCCC2)c1C,"inconclusive: 89.1 µM [inhibitor, single point]",
Cc1c(Nc2ncccc2C(=O)O)cccc1C(F)(F)F,inactive,
CCN(CC)S(=O)(=O)c1ccc(N=NC2=C(O)CCCC2=O)cc1,"inconclusive: 79.4 µM [inhibitor, single point]",
Cn1c(=O)c2cc(NC(=O)c3ccccc3Cl)c(=O)oc2n(C)c1=O,"inconclusive: 56.2 µM [inhibitor, partial curve, poor fit]",
NC(=O)C1CCCN(C(=S)NCc2ccc3c(c2)OCO3)C1 (stereo not drawn),active: 50.1 µM,
CN(Cc1ccccc1)C(=O)CN1C(=O)c2ccccc2C1=O,"inconclusive: 89.1 µM [inhibitor, single point]",
Cc1ccc(C)c(OCC(=O)N/N=C\c2cccn2C)c1,inactive,
O=S(=O)(Nc1cccc(-c2cn3c(n2)SCC3)c1)c1cccs1,"inconclusive: 70.8 µM [inhibitor, single point]",
O=C(/C=C/c1ccco1)NC(=S)Nc1ccccn1,"inconclusive: 7.08 µM [inhibitor, single point]",
COc1ccc(C(=O)N(c2ccc(OC)cc2)S(=O)(=O)c2ccc3c(c2)n(C)c(=O)n3C)cc1,"inconclusive: 11.2 µM [inhibitor, partial curve, poor fit]",
COc1cc(/C=N/NC(=O)c2ccccc2)ccc1O,inactive,
Cc1cccc(C(=O)Nc2c(C#N)c(C)c(C)n2Cc2ccccc2)c1,"inconclusive: 44.7 µM [inhibitor, partial curve, poor fit]",
Cc1ccc(C)c(N2CCN(CCCNC(=O)c3ccc4nc(N5CCCCC5)sc4c3)CC2)c1,"inconclusive: 8.91 µM [inhibitor, partial curve]",
Cc1ccc(NC(=O)[C@@H](C)NC(=O)[C@@H]2Cc3ccccc3CN2)cc1,"inconclusive: 79.4 µM [inhibitor, single point]",
COc1ccc(/C=N/Nc2nc(C)c([N+](=O)[O-])c(N(C)c3ccccc3)n2)cc1OC,inactive,
CCOC(=O)c1sc(NC(=O)c2ccco2)c(C#N)c1C,active: 44.7 µM,
CCCc1[nH]n(-c2ccc([N+](=O)[O-])cc2)c(=O)c1C=NCCc1ccc(OC)c(OC)c1,"inconclusive: 0.447 µM [inhibitor, partial curve, poor fit]",
Cn1c(=NC(=O)C2CC2)sc2cc(F)cc(F)c21,"inconclusive: 89.1 µM [inhibitor, single point]",
Cc1cccc(C)c1NS(=O)(=O)c1ccc(NS(=O)(=O)c2ccc3c(c2)OCCO3)cc1,"inconclusive: 22.4 µM [inhibitor, single point]",
C=Cc1ccc(COc2ccc3oc(-c4ccccc4)c(C(=O)OCC)c3c2)cc1,inactive,
COc1ccc(CNC(=O)c2cc(=O)c3cc(C)ccc3o2)cc1,inactive,
Cc1nonc1NC(=O)CSc1nc2ccc(Cl)cc2[nH]1,"inconclusive: 28.2 µM [inhibitor, single point]",

Structure (SMILES),Potency,"activity, negative = inhibition"
CCOC(=O)c1ccc(N=Nc2c(C)[nH]n(-c3ccccc3)c2=O)cc1,active: 3.98 µM,
Cn1c(N)c(C(=O)COC(=O)CSc2ccc3ccccc3c2)c(=O)n(C)c1=O,inactive,
CCOc1ccc(-n2c(SCC(=O)NC(C)CC)nc3n[nH]c(C)c3c2=N)cc1 (stereo not drawn),"inconclusive: 70.8 µM [inhibitor, partial curve, poor fit]",
C/C=C\C=C\C(=O)N1CC2(CC(c3cccc(NC(=O)CC)c3)=NO2)C[C@H]1C(N)=O (stereo partly drawn),,inconclusive: -74% [inhibitor] [at 12.7 µM]
Cc1cccc(N=Nc2cnc(N)s2)c1,active: 28.2 µM,
Cc1oc2c(O)c(O)ccc2c(=O)c1-c1cnn(-c2ccccc2)c1,"inconclusive: 2.51 µM [inhibitor, partial curve, poor fit]",
COc1ccc(N2CCN(S(=O)(=O)Cc3ccccc3)CC2)cc1,"inconclusive: 89.1 µM [inhibitor, single point]",
O=C(NC1CC(=O)N(c2ccc3c(c2)OCCO3)C1)N1CCCCC1 (stereo not drawn),"inconclusive: 63.1 µM [inhibitor, partial curve, poor fit]",
CCCc1nn2c(=O)cc(COc3ccc(NC(=O)c4ccco4)cc3)nc2s1,inactive,
O=[N+]([O-])c1cc(/C=N/OCc2c(Cl)cccc2Cl)ccc1N1CCOCC1,,inconclusive: -122% [inhibitor]
Cn1c(OCc2cccnc2)nc2c1c(=O)n(Cc1ccc(Br)cc1)c(=O)n2C,"inconclusive: 79.4 µM [inhibitor, partial curve, poor fit]",
CCOC(=O)C1=C(COC(=O)CNC(=O)c2ccc(C(C)(C)C)cc2)NC(=O)NC1C (stereo not drawn),"inconclusive: 89.1 µM [inhibitor, single point]",
CC(/C=C/c1ccccc1)=N\NC(=O)Cn1nc(C)cc1C,inactive,
CCN(CC)CCNC(=O)c1sc2ncn(CC(=O)Nc3ccc(C)c(Cl)c3)c(=O)c2c1C,"inconclusive: 31.6 µM [inhibitor, partial curve, poor fit]",
O=C(CN1C(=O)NC2(CCCC2)C1=O)N1CCN(S(=O)(=O)c2cc(Cl)ccc2Cl)CC1,,inactive: 15.7% [at 12.7 µM]
COc1sc(SC)cc1/C=N/NC(=O)c1ccncc1,"inconclusive: 70.8 µM [inhibitor, partial curve, poor fit]",
CCOC(=O)c1ccc(CNC(=O)C2CCCCC2C(=O)OCC(F)(F)F)o1 (stereo not drawn),,inactive: -3.65% [at 12.7 µM]
CSC(=NCc1ccc(F)cc1)NS(=O)(=O)c1cccs1,inactive,
CC(C)(C)C(=O)NC(=S)Nc1ccccc1F,"inconclusive: 79.4 µM [inhibitor, partial curve, poor fit]",
CS(=O)(=O)c1ccc(NC(=O)CCN2C(=O)NC3(CCCC3)C2=O)cc1,"inconclusive: 4.47 µM [inhibitor, single point]",
O=c1cc2[nH]c3ccccc3c(=O)n2nc1-c1ccccc1,"inconclusive: 28.2 µM [inhibitor, single point]",
N#Cc1nc(-c2ccco2)oc1NCCCn1ccnc1,"inconclusive: 1.58 µM [inhibitor, single point]",
